In the supplement of paper PMC10320760:
Single values of this set are uncertain.

B1: Ydj1; a variant is named by its letters at X, in order (parent)
chain: MVKETKFYDILGVPVTATDVEIKKAYRKCALKYHPDKNPSEEAAEKFKEASAAYEILSDPEKRDIYDQFGEDGLSGAGGAGGFPGGGFGFGDDIFSQFFGAGGAQRPRGPQRGKDIKHEISASLEELYKGRTAKLALNKQILCKECEGRGGKKGAVKKCTSCNGQGIKFVTRQMGPMIQRFQTECDVCHGTGDIIDPKDRCKSCNGKKVENERKILEVHVEPGMKDGQRIVFKGEADQAPDVIPGDVVFIVSERPHKSFKRDGDDLVYEAEIDLLTAIAGGEFALEHVSGDWLKVGIVPGEVIAPGMRKVIEGKGMPIPKYGGYGNLIIKFTIKFPENHFTSEENLKKLEEILPPRIVPAIPKKATVDECVLADFDPAKYNRTRASRGGANYDSDEEEQGGEGVQCXXX

Variants of: B1
Experiment: enrichment factor, frequency at 37 °C / frequency at 25 °C (thermotolerance selection) (ratio); higher = more growth at 37 °C, higher likelihood of farnesylation
Conditions: with Saccharomyces cerevisiae ydj1Δ (yWS304); selective temperature 37 °C; reference temperature 25 °C
Method: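 Pooled library of all 8,000 Ydj1-CXXX C-terminal motif variants (native CASQ replaced by C + three variable residues, one codon per amino acid) expressed from a CEN plasmid in S. cerevisiae ydj1Δ (yWS304). The library was grown in SC-Ura liquid to A600 ~2 (~8 generations) at permissive 25 °C or selective 37 °C. Reads from 8 and 7 replicates were pooled and variants counted by NGS. Enrichment factor = frequency at 37 °C / frequency at 25 °C, with a +1 correction; it reports Ydj1-dependent thermotolerance, used as a read-out of farnesylation by yeast FTase.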

| Variant | enrichment factor |
| --- | --- |
| EID | 1.54 |
| EIA | 2.52 |
| EIC | 2.03 |
| THL | 1.42 |
| THN | 1.67 |
| THW | 0.984 |
| THM | 1.5 |
| THT | 1.6 |
| THY | 1.72 |
| THQ | 1.48 |
| THR | 0.122 |
| THS | 1.59 |
| THG | 1.67 |
| THH | 1.89 |
| THK | 0.274 |
| THI | 1.83 |
| THV | 2.38 |
| THP | 0.108 |
| AIC | 0.756 |
| AID | 1.66 |
| AIA | 0.69 |
| HHW | 0.384 |
| HHP | 0.206 |
| HHL | 0.975 |

| Variant | enrichment factor |
| --- | --- |
| HHY | 0.494 |
| HHS | 2.37 |
| HHT | 1.97 |
| HHH | 1.9 |
| HHI | 2.1 |
| HHQ | 1.52 |
| HHR | 0.102 |
| HHV | 2.33 |
| HHK | 0.0742 |
| HHN | 1.58 |
| HHM | 1.95 |
| AHN | 1.94 |
| AHY | 1.36 |
| AHV | 1.65 |
| AHW | 1.42 |
| AHM | 1.5 |
| AHK | 0.386 |
| AHT | 1.81 |
| AHQ | 1.48 |
| AHI | 1.83 |
| AHS | 1.8 |
| AHR | 0.129 |
| AHP | 0.158 |
| AHH | 1.73 |

| Variant | enrichment factor |
| --- | --- |
| AHL | 1.8 |
| EHW | 0.357 |
| EHL | 1.68 |
| EHQ | 1.41 |
| EHM | 2.34 |
| EHK | 0.165 |
| EHT | 1.33 |
| EHR | 0.157 |
| EHP | 0.196 |
| EHY | 1.34 |
| EHN | 1.32 |
| EHV | 2.02 |
| EHS | 1.49 |
| EHI | 1.7 |
| EHH | 1.83 |
| FHL | 0.576 |
| FHH | 1.12 |
| FHK | 0.189 |
| FHM | 1.16 |
| FHN | 1.7 |
| FHT | 1.43 |
| FHW | 0.471 |
| FHI | 1.32 |
| FHV | 2.27 |

| Variant | enrichment factor |
| --- | --- |
| FHY | 0.497 |
| FHS | 1.59 |
| FHQ | 2.66 |
| FHP | 0.867 |
| FHR | 0.161 |
| VIC | 0.759 |
| VIA | 0.406 |
| MHW | 0.385 |
| MHI | 1.69 |
| MHR | 0.0975 |
| MHP | 0.145 |
| MHY | 0.675 |
| MHL | 1.27 |
| MHQ | 2.06 |
| MHS | 2.25 |
| MHK | 0.11 |
| MHM | 1.89 |
| MHH | 1.97 |
| MHN | 1.59 |
| MHV | 1.95 |
| MHT | 2.26 |
| NHN | 2.23 |
| NHL | 1.11 |
| NHH | 1.9 |

| Variant | enrichment factor |
| --- | --- |
| NHK | 0.593 |
| NHY | 0.579 |
| NHW | 0.421 |
| NHS | 1.82 |
| NHP | 0.153 |
| NHQ | 1.62 |
| NHV | 2.53 |
| NHM | 1.9 |
| NHR | 0.226 |
| NHI | 1.58 |
| NHT | 1.71 |
| DIA | 1.32 |
| DIC | 1.69 |
| SHN | 1.72 |
| SHR | 0.169 |
| SHK | 0.165 |
| SHQ | 1.38 |
| SHT | 1.74 |
| SHL | 0.82 |
| SHW | 0.533 |
| SHM | 1.41 |
| SHP | 0.2 |
| SHH | 2.21 |
| SHI | 1.52 |

| Variant | enrichment factor |
| --- | --- |
| SHY | 0.635 |
| SHV | 2.61 |
| SHG | 1.25 |
| SHS | 2.08 |
| SIA | 1.16 |
| SIC | 0.526 |
| WIC | 5.21 |
| PIC | 0.7 |
| PIA | 1.08 |
| KHM | 1.53 |
| KHS | 1.63 |
| KHH | 1.95 |
| KHW | 0.605 |
| KHR | 0.152 |
| KHN | 1.34 |
| KHP | 0.1 |
| KHT | 1.81 |
| KHL | 0.319 |
| KHV | 1.85 |
| KHI | 1.11 |
| KHY | 0.248 |
| KHK | 0.237 |
| KHQ | 1.29 |
| GHI | 0.386 |

| Variant | enrichment factor |
| --- | --- |
| GHK | 0.188 |
| GHY | 0.185 |
| GHL | 0.151 |
| GHV | 1.29 |
| GHN | 1.1 |
| GHQ | 1.59 |
| GHT | 1.01 |
| GHR | 0.108 |
| GHM | 1.65 |
| GHH | 0.947 |
| GHW | 0.193 |
| GHS | 1.25 |
| GHP | 0.195 |
| HIA | 1.69 |
| HID | 2.39 |
| HIC | 0.978 |
| KIC | 1.01 |
| KIA | 2.23 |
| YIA | 2.32 |
| YIC | 1.74 |
| QHL | 1.79 |
| QHW | 1.29 |
| QHQ | 1.8 |
| QHG | 1.59 |

| Variant | enrichment factor |
| --- | --- |
| QHM | 1.92 |
| QHK | 0.138 |
| QHP | 0.169 |
| QHN | 1.88 |
| QHR | 0.166 |
| QHH | 2.08 |
| QHI | 2.34 |
| QHS | 2.33 |
| QHV | 2.22 |
| QHY | 1.03 |
| QHT | 2.11 |
| RHQ | 1.37 |
| RHI | 1.43 |
| RHM | 1.47 |
| RHG | 0.638 |
| RHS | 1.6 |
| RHP | 0.116 |
| RHL | 0.693 |
| RHW | 0.518 |
| RHY | 0.375 |
| RHN | 1.4 |
| RHK | 0.137 |
| RHH | 1.91 |
| RHV | 1.49 |

| Variant | enrichment factor |
| --- | --- |
| RHR | 0.139 |
| RHT | 1.79 |
| WHY | 1.85 |
| WHG | 1.47 |
| WHV | 1.65 |
| WHH | 1.73 |
| WHR | 0.299 |
| WHK | 0.161 |
| WHT | 2.04 |
| WHM | 2.06 |
| WHW | 1.38 |
| WHS | 1.8 |
| WHI | 2.04 |
| WHN | 1.73 |
| WHL | 2.08 |
| WHQ | 1.75 |
| WHP | 1.52 |
| CHQ | 1.13 |
| CHM | 0.57 |
| CHP | 0.602 |
| CHN | 1.87 |
| CHT | 1.29 |
| CHS | 1.06 |
| CHR | 0.147 |

| Variant | enrichment factor |
| --- | --- |
| CHI | 0.272 |
| CHV | 0.869 |
| CHY | 0.693 |
| CHK | 0.391 |
| CHL | 0.416 |
| CHG | 1.26 |
| CHW | 0.458 |
| CHH | 0.932 |
| QIC | 1.47 |
| QIA | 2.94 |
| IHW | 1.3 |
| IHK | 0.253 |
| IHS | 1.86 |
| IHM | 2.42 |
| IHV | 2.12 |
| IHR | 0.135 |
| IHI | 2.23 |
| IHT | 2.47 |
| IHP | 0.0959 |
| IHQ | 1.8 |
| IHY | 1.72 |
| IHN | 1.19 |
| IHH | 1.77 |
| IHL | 1.37 |

| Variant | enrichment factor |
| --- | --- |
| MIA | 1.56 |
| MIC | 0.724 |
| DHY | 0.158 |
| DHH | 0.15 |
| DHV | 0.624 |
| DHL | 0.16 |
| DHS | 0.399 |
| DHN | 0.184 |
| DHQ | 1.6 |
| DHR | 0.145 |
| DHG | 0.234 |
| DHP | 0.0708 |
| DHT | 0.186 |
| DHW | 0.196 |
| DHK | 0.158 |
| DHM | 1.82 |
| DHI | 0.212 |
| IIA | 0.927 |
| IIC | 0.585 |
| LHL | 1.85 |
| LHV | 1.94 |
| LHS | 1.42 |
| LHP | 0.175 |
| LHQ | 1.48 |

| Variant | enrichment factor |
| --- | --- |
| LHT | 1.47 |
| LHK | 0.81 |
| LHI | 1.99 |
| LHW | 0.895 |
| LHH | 1.95 |
| LHM | 1.87 |
| LHY | 1.07 |
| LHR | 0.171 |
| LHN | 1.26 |
| CIA | 0.515 |
| CIC | 0.607 |
| NIA | 2.32 |
| NIC | 0.61 |
| YHR | 0.154 |
| YHK | 0.151 |
| YHI | 1.67 |
| YHL | 0.852 |
| YHW | 0.52 |
| YHP | 0.115 |
| YHQ | 4.5 |
| YHV | 2.84 |
| YHG | 1.28 |
| YHY | 0.285 |
| YHM | 4.25 |

| Variant | enrichment factor |
| --- | --- |
| YHS | 1.69 |
| YHT | 2.21 |
| YHN | 1.12 |
| YHH | 1.13 |
| FID | 3.39 |
| FIA | 1.62 |
| FIC | 1.74 |
| GIC | 0.72 |
| GIA | 0.807 |
| GID | 1.63 |
| LIC | 1.53 |
| LIA | 1.51 |
| VHG | 1.5 |
| VHT | 2.2 |
| VHP | 0.13 |
| VHV | 2.15 |
| VHK | 1.24 |
| VHR | 0.15 |
| VHI | 3.34 |
| VHQ | 1.48 |
| VHH | 1.78 |
| VHL | 3.13 |
| VHW | 1.59 |
| VHS | 2.53 |

| Variant | enrichment factor |
| --- | --- |
| VHM | 3.09 |
| VHY | 2.2 |
| VHN | 1.68 |
| PHP | 0.179 |
| PHT | 1.92 |
| PHV | 1.54 |
| PHK | 0.147 |
| PHG | 1.87 |
| PHM | 1.74 |
| PHR | 0.201 |
| PHS | 1.86 |
| PHN | 1.93 |
| PHY | 1.43 |
| PHQ | 1.63 |
| PHW | 0.892 |
| PHI | 1.84 |
| PHL | 1.44 |
| PHH | 1.4 |
| RIA | 1.13 |
| RIC | 0.982 |
| TIA | 0.881 |
| TIC | 0.901 |
